Six compounds from PubChem BioAssay AID258 (DTP/NCI, 2004) can be followed below.

The test concerns CD2F1 mice, L1210 leukemia sc, survival T/C. Nature of the test: NCI In Vivo Anticancer Drug Screen. Data for tumor model L1210 Leukemia (subcutaneous) in CD2F1 (CDF1) mice. To be noted: endpoint: median survival time, higher = longer survival. The method, then:
The antitumor activity of compounds was measured in mice bearing transplantable tumors. Survival or tumor size were measured and the results are expressed as the measurement made in the treated group (T) divided by the measurement made in the vehicle treated control group (C). The tumor model used in this assay is L1210 Leukemia (subcutaneous) in CD2F1 (CDF1) mice

Inconclusive results and toxic doses are left out. Certain results were filed several times, with different values. This list holds those alone. There may be further records. Values that stand side by side do not match, cause unknown; they may come from other doses, times, organisms or constructs than stated.

For the compound `CC1CCC(NC(=O)N(CCCl)N=O)CC1` (centres undefined), the T/C (dose: 32.0 mg/kg/injection, schedule: Q01DX009 (ip), vehicle: saline + alcohol) is 108 % of control and 168 % of control.
`O=C1c2ccccc2C(=O)c2c(NCCNCCO)ccc(NCCNCCO)c21`: the T/C is, setting by setting: (dose: 8.0 mg/kg/injection, schedule: Q01DX009 (sc), vehicle: Klucel (hydroxypropylcellulose) (HPC)) 123 % of control and 150 % of control; (dose: 16.0 mg/kg/injection, schedule: Q01DX009 (ip), vehicle: saline) 108 % of control and 151 % of control.
Regarding `CC(CN1CC(=O)NC(=O)C1)N1CC(=O)NC(=O)C1` (centres undefined), the T/C is, setting by setting: (dose: 60.0 mg/kg/injection, schedule: Q01DX009 (ip), vehicle: saline with Tween-80) 113 % of control and 186 % of control; (dose: 120.0 mg/kg/injection, schedule: Q01DX009 (sc), vehicle: saline with Tween-80) 113 % of control, 164 % of control, 165 % of control.
For `Nc1ncn(C2OC(CO)C(O)C2O)c(=O)n1` (centres undefined), the T/C (dose: 1.6 mg/kg/injection, schedule: Q01DX009 (sc), vehicle: saline) is 119 % of control, 157 % of control, 168 % of control and the T/C (dose: 7.2 mg/kg/injection, schedule: Q01DX009 (sc), vehicle: saline) was 95 % of control, 151 % of control, 155 % of control.
Regarding `Nc1nc2c(c(=O)[nH]1)NC(CCNc1ccc(C(=O)NC(CCC(=O)O)C(=O)O)cc1)CN2` (centres undefined), the T/C (dose: 400.0 mg/kg/injection, schedule: Q01DX Z (ip), vehicle: other) was 115 % of control and 150 % of control.
Regarding `CC(=O)OC1COC(NC(=O)N(CCCl)N=O)C(OC(C)=O)C1OC(C)=O` (centres undefined), the T/C (dose: 6.0 mg/kg/injection, schedule: Q01DX009 (ip), vehicle: saline with Tween-80) is 118 % of control and 175 % of control.
